Test results: PubChem BioAssay AID624417 (National Center for Advancing Translational Sciences (NCATS), 2012)
Screen size: about 410,000 compounds; about 6,400 (1.6%) were called active. Inconclusive results, whose numbers are uncertain, are shown with a selection of clear calls. The call rests on the fitted dose curve; in most records, active means well fitted inhibition curve with a large enough effect; inconclusive means small, poorly fitted or top-dose-only effect; inactive means no such curve, though single readings can be large or run the other way. Potencies of inconclusive entries are left out as doubtful fits.

These compounds were tested against Glucagon-like peptide 1 receptor (Homo sapiens) (UniProt P43220) (assay: qHTS of GLP-1 Receptor Inverse Agonists (Inhibition Mode)). Conditions: HEK293 GLP-1R CRE-luciferase, luminescence, 24 h, GLP-1R form is constitutively active; activity change, negative = inhibition: at 38.3 µM (top of the series) unless noted.
UniProt P43220, sequence (P43220 whole entry, looked up): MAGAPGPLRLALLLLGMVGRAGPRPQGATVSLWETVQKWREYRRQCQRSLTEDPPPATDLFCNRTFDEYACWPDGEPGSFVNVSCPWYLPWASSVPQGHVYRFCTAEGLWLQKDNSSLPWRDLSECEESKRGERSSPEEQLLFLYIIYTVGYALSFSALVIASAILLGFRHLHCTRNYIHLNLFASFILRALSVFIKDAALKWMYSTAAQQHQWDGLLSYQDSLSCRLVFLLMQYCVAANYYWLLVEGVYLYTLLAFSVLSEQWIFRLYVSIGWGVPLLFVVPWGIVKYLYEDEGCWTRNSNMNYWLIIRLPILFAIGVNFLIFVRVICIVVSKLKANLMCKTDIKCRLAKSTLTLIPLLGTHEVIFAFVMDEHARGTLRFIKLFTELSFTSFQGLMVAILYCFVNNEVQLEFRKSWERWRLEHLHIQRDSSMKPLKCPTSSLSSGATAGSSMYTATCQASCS
In short: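 Seeding at 200 cells/uL, 12 h culture, 24 hr compound treatment, then luciferase reagent and a luminescence read; cells are HEK293 stably expressing a constitutively active GLP-1R plus cAMP-responsive luciferase.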
Further: nearly all actives have a fitted effect of over 55% in size.
On the % scale 0 is the no-effect control and ±100 the full control effect; potency means the concentration at half of the fitted maximal effect; tags describe the fitted curve by direction and shape.

Structure (SMILES)	Potency	activity change, negative = inhibition
Cc1cc(C(=O)CSc2nnc(-c3ccco3)o2)c(C)n1-c1ccc2c(c1)OCCO2	inconclusive [inhibitor, single point]	–
O=C(c1ccc2c(c1)OCCO2)N1CCN(Cc2c(F)cccc2Cl)CC1	inconclusive [inhibitor, single point]	–
O=C(Cc1ccc(Cl)cc1)c1c[nH]c(C(=O)NCCCn2ccnc2)c1	inconclusive [inhibitor, single point]	–
Cc1cccc(CSc2nnc(N)n2-c2ccccc2)c1	–	inactive: 7.76%
COCCNC(=O)C1(C)CCCN(Cc2ccc(Oc3ccccc3)cc2)C1 (stereo unspecified)	inconclusive [inhibitor, single point]	–
Cc1[nH]c(=O)c(C(=O)/C=C/c2ccccc2)c2c1CCCC2	inconclusive [inhibitor, full curve, poor fit]	–
CCOc1cc(C(=O)Nc2ccc3oc(-c4ccc(F)cc4Cl)nc3c2)cc(OCC)c1OCC	inconclusive [inhibitor, full curve, poor fit]	–
CCN(CC)c1ccc(N=Cc2cc(Br)ccc2O)cc1	inconclusive [inhibitor, partial curve, poor fit]	–
Cc1ccc(NC(=O)c2ncn(CCCNCc3ccc4c(c3)OCO4)n2)cc1C	inconclusive [inhibitor, single point]	–
COCc1cc(Sc2cccc(Cl)c2Cl)nc(-c2ccccc2)n1	inconclusive [inhibitor, partial curve, poor fit]	–
COc1ccc(NC(=O)C[C@H]2C(=O)N(c3ccccc3)C[C@@H]2Cc2ccccc2)cc1	inconclusive [inhibitor, partial curve, poor fit]	–
Cn1cncc1C#Cc1c(C=O)[nH]c2ccccc12	inconclusive [inhibitor, single point]	–
COc1ccc(N(Cc2cccs2)C(=O)c2ccccc2C)cc1	inconclusive [inhibitor, single point]	–
FC(F)(F)c1cc(-c2cccs2)nc(N2CCOCC2)n1	inconclusive [inhibitor, single point]	–
CC(=O)Nc1ccc(NC(=O)CCCc2nc(-c3ccc(C(C)(C)C)cc3)no2)cc1	inconclusive [inhibitor, partial curve, poor fit]	–
CC(C)=CC1C(C(=O)NCCc2ccccc2)C1(C)C (stereo unspecified)	inconclusive [inhibitor, single point]	–
Cc1ccc2c(CN3CC(C)CC(C)C3)cc(=O)oc2c1 (stereo unspecified)	–	inconclusive: -73% [inhibitor]
COc1ccc(CNC(=S)Nc2ccc3nc(N4CCN(C)CC4)cc(C)c3c2)cc1	inconclusive [inhibitor, partial curve, poor fit]	–
O=C1C2C3c4ccccc4C(c4ccccc43)C2C(=O)N1Cc1ccccn1 (stereo unspecified)	inconclusive [inhibitor, single point]	–
Cc1ccc(CS(=O)(=O)c2cn(CC(=O)N(C)c3ccccc3)c3ccccc23)cc1	inconclusive [inhibitor, partial curve, poor fit]	–
CC1=C(C(=O)OC2CCCC2)C(c2ccc(F)cc2F)CC(=O)N1 (stereo unspecified)	inconclusive [inhibitor, partial curve, poor fit]	–

Structure (SMILES)	Potency	activity change, negative = inhibition
CCOc1cccc(/C(O)=C2/C(=O)C(=O)N(Cc3cccnc3)C2c2ccco2)c1 (stereo unspecified)	–	inactive: 0.197%
O=C(Cn1nc(-c2ccccc2)ccc1=O)NCc1ccc(F)cc1Cl	–	inactive: 5.5%
COc1ccccc1Nc1nn2c(=O)c3ccc(C(=O)N4CCC(C)CC4)cc3nc2s1	inconclusive [inhibitor, single point]	–
Oc1cccc(-c2nnc(-c3cccc(O)c3)nn2)c1	inconclusive [inhibitor, partial curve, poor fit]	–
COc1ccccc1NS(=O)(=O)c1cccc(NC(=O)Nc2ccccc2)c1	active: 5.62 µM	–
CCOC(=O)c1c(C)c(/C=N/Nc2ccccc2)n(C)c1C	inconclusive [inhibitor, single point]	–
O=C(c1nc(-c2ccc(Cl)cc2)n2c1CCCCC2)N1CCN(c2ccccc2F)CC1	inconclusive [inhibitor, single point]	–
COc1ccccc1NC(=O)N(Cc1ccco1)Cc1cc2cc(C)cc(C)c2[nH]c1=O	inconclusive [inhibitor, partial curve]	–
COc1cc(Cn2c(N)c(C#N)c3nc4ccccc4nc32)cc(OC)c1	–	inactive: 17%
O=c1[nH]c(=S)[nH]c2c1C(c1cccc(C(F)(F)F)c1)OC(CCc1ccccc1)C2 (stereo unspecified)	inconclusive [inhibitor, single point]	–
CC1CCCC(NS(=O)(=O)c2cccc3nsnc23)C1C (stereo unspecified)	inconclusive [inhibitor, partial curve, poor fit]	–
C(=N\Nc1nncc2ccccc12)/c1ccccc1	–	inactive: 15.9%
O=C(NCc1ccccc1Cl)C1CCN(S(=O)(=O)c2ccc3c(c2)CCCN3C(=O)C2CCC2)CC1	inconclusive [inhibitor, single point]	–
COc1cccc(OCC(=O)NNC(=S)Nc2ccc(Cl)cc2Cl)c1	–	inactive: -28.2%
CCOc1ccc(NC(=O)c2c(NC(=O)c3ccco3)sc3c2CCC(C(C)(C)C)C3)cc1 (stereo unspecified)	–	inactive: 16.8%
CN(CCOc1ccc(Cl)cc1)C(=O)c1cccc(S(=O)(=O)N2CCN(Cc3ccccc3)CC2)c1	inconclusive [inhibitor, partial curve, poor fit]	–
CCC(=O)Nc1ccc(C(=O)NNC(=O)c2ccccc2)cc1	–	inactive: 12.3%
Cc1ccsc1CN(C)C(=O)CN1C(=O)NC2(CCCc3ccccc32)C1=O (stereo unspecified)	inconclusive [inhibitor, single point]	–
COc1ccccc1C(CC(=O)N1CCCC1)c1ccc2c(c1)OCO2 (stereo unspecified)	inconclusive [inhibitor, full curve, poor fit]	–
Cc1ccc(N2CCN(C(=O)c3cc(COc4c(C)cccc4C)on3)CC2)c(C)c1	inconclusive [inhibitor, partial curve, poor fit]	–
